± gives the standard deviation of the averaged measurements. The list shows a part of the results.
Test system: PfAP2-I AP2 domain 3 (GST-tagged)
Test: gcPBM binding intensity (ln(normalized median fluorescence intensity)); higher = stronger DNA binding
How it was run: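 Plasmodium falciparum DNA-binding domains carrying a GST tag were expressed in E. coli and applied for 1 h, at about 25 μg on average, to an Agilent 4 × 180k array. The array held primer-extended double-stranded 36-bp intergenic genomic probes together with negative controls, and binding took place in 1× PBS with 1% milk, 0.2 mg/ml BSA, 0.5% salmon testes DNA and 0.03% Triton X-100. An Alexa488 anti-GST antibody detected bound protein, and the array was scanned at 488 nm. Binding intensity is taken as the highest Masliner-normalised natural-log median intensity across replicate spots of either probe orientation.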

Row | Sequence | gcPBM binding intensity (ln)
1 | TAATATTACATTTATTGTACTTTGTTTTTATTTTAT [XGTACX_site1605] | 7.83 ± 0.36
2 | AATTATACTCACGTTACACACACACTAGATATATAT [CACACA_site6133] | 8.32 ± 0.69
3 | TTTTTTTTTTTTTTTTGTACATATATATAAAAAATA [XGTACX_site2772] | 8.07 ± 0.67
4 | CCCACAATGGTTTATATACACACTGTTGCAAATTCT [CACACA_site3066] | 7.92 ± 0.61
5 | ATTGAAAAAATACAATGTACATAGTAATACAAAGAA [XGTACX_site4142] | 8.18 ± 0.62
6 | TAATACTTAATGAACACATGCACATATACATAGTAT [TGCATGCA_site496] | 7.88 ± 0.61
7 | TGTTTCTAAGAATTTACACACAAAATATTTCTACAT [CACACA_site7846] | 7.7 ± 0.57
8 | AAAAAAAAAAATTGCACACAAAAAAAAAAAAAAAAA [CACACA_site2073] | 8.9
9 | TTAAAAATTAAAAGTAGTACATATAATATAAACATT [XGTACX_site424] | 7.8 ± 0.2
10 | ATGTATCGTAACAAATGTACAAGAGGATGTTTAGAC [XGTACX_site3355] | 8.22 ± 0.61
11 | GATATATTTTGTTATGTAGATGTTGGTAGGAATTTT [GTGCAC_negctrl_site485] | 7.74 ± 0.57
12 | GTATTTATATGATTAACACACATATGTGGATTAATA [CACACA_site1315] | 7.86 ± 0.45
13 | TATTGATAAAAAATATGTACATATATACATATATAT [XGTACX_site3821] | 7.78 ± 0.43
14 | ATATATATATATATATGTACGTAAACAAAAATTTAT [XGTACX_site6780] | 9.37 ± 0.47
15 | TATATAACTACAAGAACACACATATAAATATAAATA [CACACA_site7210] | 7.71 ± 0.58
16 | GTAATTAAGATATATACACACAAAGGCTATTAAATA [CACACA_site6604] | 7.58 ± 0.57
17 | AAAAATAAAATAAAATAAAATAAAAATAAAGAAAAA [CACACA_negctrl_site808] | 7.69 ± 0.57
18 | ACAAATAAAAAAATTACACACATATATAATATATAT [CACACA_site1361] | 7.83 ± 0.64
19 | AGTAGTCTGGAGAAAAGTACACAGTATCTGGTAACA [XGTACX_site2034] | 7.85 ± 0.45
20 | ATTTGACACGTATATGCACACACCCGTAAGTGTCCA [CACACA_site8891] | 9.67 ± 0.071
21 | TATTAACTCAATAGCGCACACTTTTAATATTTTATA [CACACA_site4973] | 10.1 ± 0.35
22 | TCATAAAAAGGAATCTTTAAGATATTTTATAAGCTC [XGTACX_negctrl_site18] | 7.43 ± 0.69
23 | TTATAAATTTTTAATAGTACATAAAATTAAAGGTAA [XGTACX_site760] | 7.84 ± 0.28
24 | ATGTGATAATTTAGGAGTACTGTCATAAGCATTTCT [XGTACX_site3091] | 7.74 ± 0.59
